Data on nine variants can be found in the supplement of paper PMC12217912.

First the molecules themselves.
B1: TEV protease; numbered along this chain (parent)
chain: MGESLFKGPRDYNPISSSICHLTNESDGHTTSLYGIGFGPFIITNKHLFRRNNGTLVVQSLHGVFKVKDTTTLQQHLVDGRDMIIIRMPKDFPPFPQKLKFREPQREERICLVTTNFQTKSMSSMVSDTSCTFPSGDGIFWKHWIQTKDGQCGSPLVSTRDGFIVGIHSASNFTNTNNYFTSVPKNFMELLTNQEAQQWVSGWRLNADSVLWGGHKVFMVKPEEPFQPVKEATQL

This is one part of the list. Sequences were assembled here from the parent chain. Inactive controls read about 0.05.

In this assay the parent is B1. The assay is described as follows: raw area under fraction-flipped curve 0-4 h after induction (AUC4h, not background-subtracted), DNA-recorder readout of cleavage of the substrate (dimensionless); higher = more cleavage of the substrate by the protease variant. Conditions: temperature: 34 °C; time window: 0-4 h after rhamnose induction. The protocol:
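In vivo DNA recorder in E. coli TOP10(DE3) ΔrhaA at 34 °C. Each TEVp single-site mutant (parent TEVp 0) is paired with a single-site variant of the 7-mer TEVs (canonical ENLYFQ|S). The substrate sits between flexible linkers in a Bxb1-sfGFP-TEVs-SsrA fusion, so cleavage stabilises Bxb1 and speeds flipping of a recombination array, read by NGS. The value is the raw area under the fraction-flipped curve over 0-4 h after rhamnose induction (AUC4h), with ≥20 reads per time point. It is not background-subtracted; inactive controls average about 0.047.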
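Further: Bxb1 expression induced with 0.2% (w/v) L-rhamnose at OD600 near 0.5, cultures sampled hourly, flipped fraction per protease–substrate barcode pair counted by paired-end Illumina sequencing.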

As for MGESLFKGPRDYNPISSSICHLTNESDGHTTSLYGIGFGPFIITNKHLFRRNNGTLVVQSLHGVFKVKDTTTLQQHLVDGRDMIIIRMPKDFPPFPQKLKFREPQREERICLVTTNFQTKSMSSMVSDTSCTFPSGDGIFWKHWIQTKDGQCGSPLVSTRDGFIVGIHSASNFTNTMNYFTSVPKNFMELLTNQEAQQWVSGWRLNADSVLWGGHKVFMVKPEEPFQPVKEATQL [N177M], the “area with substrate ENLYAQS” value was determined as 0.0368, the “area with substrate ENLYDQS” value is 0.0537, the “area with substrate ENLYEQS” value came out at 0.0604 and the “area with substrate ENLYKQS” value amounted to 0.0631. The “area with substrate ENLYNQS” value is 0.0799, the “area with substrate ENLYWQS” value stood at 0.0968 and the “area with substrate ENLYYQS” value was 0.0557.

In the case of MGESLFKGPRDYNPISSSICHLTNESDGHTTSLYGIGFGPFIITNKHLFRRNNGTLVVQSLHGVFKVKDTTTLQQHLVDGRDMIIIRMPKDFPPFPQKLKFREPQREERICLVTTNFQTKSMSSMVSDTSCTFPSGDGIFWKHWIQTKDGQCGSPLVSTRDGFIVGIHSASNFTNTNNYFKSVPKNFMELLTNQEAQQWVSGWRLNADSVLWGGHKVFMVKPEEPFQPVKEATQL [T181K], the “area with substrate ENLYAQS” value is 0.0545, the “area with substrate ENLYDQS” value amounted to 0.0595, the “area with substrate ENLYGQS” value was determined as 0.0619 and the “area with substrate ENLYKQS” value is 0.0575. For the same variant, the “area with substrate ENLYMQS” value turned out to be 0.0583, the “area with substrate ENLYPQS” value amounted to 0.0592, the “area with substrate ENLYVQS” value worked out at 0.113 and the “area with substrate ENLYYQS” value stood at 0.0516.

Consider MGESLFKGPRDYNPISSSICHLTNESDGHTTSLYGIGFGPFIITNKHLFRRNNGTLVVQSLHGVFKVKDTTTLQQHLVDGRDMIIIRMPKDFPPFPQKLKFREPQREERICLVTTNFQTKSMSSMVSDTSCTFPSGDGIFWKHWIQTKDGQCGSPLVSTRDGFIVGIHSASNFTNQNNYFTSVPKNFMELLTNQEAQQWVSGWRLNADSVLWGGHKVFMVKPEEPFQPVKEATQL [T176Q], for which the “area with substrate ENLYAQS” value was 0.0656, the “area with substrate ENLYEQS” value stood at 0.0733, the “area with substrate ENLYGQS” value was determined as 0.0716 and the “area with substrate ENLYHQS” value was 0.0694. The “area with substrate ENLYKQS” value came out at 0.0241, the “area with substrate ENLYMQS” value worked out at 0.0529, the “area with substrate ENLYNQS” value was 0.0436 and the “area with substrate ENLYQQS” value came out at 0.0559. Besides, the “area with substrate ENLYRQS” value was 0.0527, the “area with substrate ENLYSQS” value turned out to be 0.0666 and the “area with substrate ENLYYQS” value came out at 0.0926.

Take MGESLFKGPRDYNPISSSICHLTNESDGHTTSLYGIGFGPFIITNKHLFRRNNGTLVVQSLHGVFKVKDTTTLQQHLVDGRDMIIIRMPKDFPPFPQKLKFREPQREERICLVTTNFQTKSMSSMVSDTSCTFPSGDGIFWKHWIQTKDGQCGSPLVSTRDGFIVGIHSASNFTNTNNYFTSVPKNAMELLTNQEAQQWVSGWRLNADSVLWGGHKVFMVKPEEPFQPVKEATQL [F187A]: the “area with substrate ENLYAQS” value was found to be 0.0578, the “area with substrate ENLYDQS” value was found to be 0.0671, the “area with substrate ENLYEQS” value was found to be 0.0517 and the “area with substrate ENLYGQS” value was 0.112. For the same variant, the “area with substrate ENLYHQS” value was determined as 0.0556, the “area with substrate ENLYIQS” value stood at 0.0871, the “area with substrate ENLYKQS” value is 0.0574 and the “area with substrate ENLYMQS” value is 0.0566. Besides, the “area with substrate ENLYNQS” value worked out at 0.0562, the “area with substrate ENLYPQS” value stood at 0.0551, the “area with substrate ENLYSQS” value amounted to 0.0692 and the “area with substrate ENLYVQS” value is 0.121. Further, the “area with substrate ENLYWQS” value is 0.0718.

Consider MGESLFKGPRDYNPISSSICHLTNESDGHTTSLYGIGFGPFIITNKHLFRRNNGTLVVQSLHGVFKVKDTTTLQQHLVDGRDMIIIRMPKDFPPFPQKLKFREPQREERICLVTTNFQTKSMSSMVSDTSCTFPSGDGIFWKHWIQTKDGQCGSPLVSTRDGFIVGIHSASNFTNTNNYFTSVPKNGMELLTNQEAQQWVSGWRLNADSVLWGGHKVFMVKPEEPFQPVKEATQL [F187G], for which the “area with substrate ENLYAQS” value is 0.0584, the “area with substrate ENLYCQS” value worked out at 0.0724, the “area with substrate ENLYDQS” value is 0.0512 and the “area with substrate ENLYEQS” value came out at 0.0638. Also, the “area with substrate ENLYGQS” value stood at 0.0442, the “area with substrate ENLYHQS” value worked out at 0.0491, the “area with substrate ENLYIQS” value turned out to be 0.0588 and the “area with substrate ENLYKQS” value amounted to 0.0422. The “area with substrate ENLYMQS” value turned out to be 0.0521, the “area with substrate ENLYNQS” value is 0.0582, the “area with substrate ENLYPQS” value came out at 0.0641 and the “area with substrate ENLYRQS” value was determined as 0.0501. In addition, the “area with substrate ENLYVQS” value is 0.0745.

With MGESLFKGPRDYNPISSSICHLTNESDGHTTSLYGIGFGPFIITNKHLFRRNNGTLVVQSLHGVFKVKDTTTLQQHLVDGRDMIIIRMPKDFPPFPQKLKFREPQREERICLVTTNFQTKSMSSMVSDTSCTFPSGDGIFWKHWIQTKDGQCGSPLVSTRDGFIVGIHSASNFTNTNNYFTSVPKNFMELLTNCEAQQWVSGWRLNADSVLWGGHKVFMVKPEEPFQPVKEATQL [Q194C], the “area with substrate ENLYAQS” value was 0.0736, the “area with substrate ENLYDQS” value came out at 0.086, the “area with substrate ENLYEQS” value is 0.0618 and the “area with substrate ENLYGQS” value was determined as 0.0651. Further, the “area with substrate ENLYHQS” value is 0.0867, the “area with substrate ENLYKQS” value is 0.0776, the “area with substrate ENLYMQS” value is 0.0792 and the “area with substrate ENLYNQS” value came to 0.0712. Further, the “area with substrate ENLYPQS” value stood at 0.0709, the “area with substrate ENLYQQS” value is 0.0543, the “area with substrate ENLYRQS” value came out at 0.0634 and the “area with substrate ENLYSQS” value was determined as 0.136. The “area with substrate ENLYTQS” value is 0.0834, the “area with substrate ENLYVQS” value stood at 0.108 and the “area with substrate ENLYWQS” value amounted to 0.0704.

With MGESLFKGPRDYNPISSSICHLTNESDGHTTSLYGIGFGPFIITNKHLFRRNNGTLVVQSLHGVFKVKDTTTLQQHLVDGRDMIIIRMPKDFPPFPQKLKFREPQREERICLVTTNFQTKSMSSMVSDTSCTFPSGDGIFWKHWIQTKDGQCGSPLVSTRDGFIVGIHSASNFTNTNNYFTSGPKNFMELLTNQEAQQWVSGWRLNADSVLWGGHKVFMVKPEEPFQPVKEATQL [V183G], the “area with substrate ENLYAQS” value worked out at 0, the “area with substrate ENLYEQS” value was determined as 0.0588, the “area with substrate ENLYHQS” value came out at 0.0405 and the “area with substrate ENLYNQS” value is 0.0356. Besides, the “area with substrate ENLYPQS” value is 0.049, the “area with substrate ENLYSQS” value is 0.038, the “area with substrate ENLYTQS” value is 0.0549 and the “area with substrate ENLYVQS” value worked out at 0.072. In addition, the “area with substrate ENLYWQS” value came out at 0.0179 and the “area with substrate ENLYYQS” value was found to be 0.0568.

Consider MGESLFKGPRDYNPISSSICHLTNESDGHTTSLYGIGFGPFIITNKHLFRRNNGTLVVQSLHGVFKVKDTTTLQQHLVDGRDMIIIRMPKDFPPFPQKLKFREPQREERICLVTTNFQTKSMSSMVSDTSCTFPSGDGIFWKHWIQTKDGQCGSPLVSTRDGFIVGIHSASNFTNTNNYFTSVPKNFMELLTNQEAQSWVSGWRLNADSVLWGGHKVFMVKPEEPFQPVKEATQL [Q198S], for which the “area with substrate ENLYAQS” value amounted to 0.0712, the “area with substrate ENLYDQS” value stood at 0.0577, the “area with substrate ENLYGQS” value was found to be 0.0689 and the “area with substrate ENLYHQS” value was found to be 0.0741. For the same variant, the “area with substrate ENLYKQS” value came to 0.0382, the “area with substrate ENLYLQS” value came to 0.0942, the “area with substrate ENLYNQS” value was determined as 0.0497 and the “area with substrate ENLYQQS” value was found to be 0.0609. Also, the “area with substrate ENLYRQS” value worked out at 0.0602, the “area with substrate ENLYSQS” value came out at 0.065 and the “area with substrate ENLYWQS” value came out at 0.0649.

As to MGESLFKGPRDYNPISSSICHLTNESDGHTTSLYGIGFGPFIITNKHLFRRNNGTLVVQSLHGVFKVKDTTTLQQHLVDGRDMIIIRMPKDFPPFPQKLKFREPQREERICLVTTNFQTKSMSSMVSDTSCTFPSGDGIFWKHWIQTKDGQCGSPLVSTRDGFIVGIHSASNFTNTNNYFTSVPKNFMELLTCQEAQQWVSGWRLNADSVLWGGHKVFMVKPEEPFQPVKEATQL [N193C], the “area with substrate ENLYAQS” value was found to be 0.0764, the “area with substrate ENLYDQS” value was determined as 0.024, the “area with substrate ENLYGQS” value was determined as 0.0643 and the “area with substrate ENLYIQS” value was determined as 0.112. The “area with substrate ENLYLQS” value is 0.0745, the “area with substrate ENLYNQS” value turned out to be 0.0794 and the “area with substrate ENLYQQS” value was 0.0765.
